Reference: the supplement of paper PMC8728848
The other results are listed elsewhere or left out.

Assays:
Assay in all cases: glycan array binding signal (z-score within array); higher = stronger binding
Conditions in all cases: glycan notation: IUPAC condensed, linker removed; mutation: D109R
[1] = target: Neu5Ac(a2-3)Gal6S(b1-4)[Fuc(a1-3)]GlcNAc
Summary of the method: (§1)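 Glycan array binding is given as a within-array Z-score, which can be read as non-binding when negative. The arrays, 3228 of them, came from the Consortium for Functional Glycomics database and were retained only where the protein sequence was available. Z-scores were averaged across arrays of the same protein sequence at different concentrations or buffers and across linkers.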

Neu5Ac(a2-3)GalNAc = target: Neu5Ac(a2-3)GalNAc
Summary of the method: as §1

[2] = target: Neu5Ac(a2-3)GalNAc(b1-4)GlcNAc
Summary of the method: as §1

[3] = target: Neu5Ac(a2-3)[GalNAc(b1-4)]Gal(b1-4)Glc
Summary of the method: as §1

[4] = target: Neu5Ac(a2-3)[GalNAc(b1-4)]Gal(b1-4)GlcNAc
Summary of the method: as §1

[5] = target: Neu5Ac(a2-3)[GalNAc(b1-4)]Gal(b1-4)GlcNAc(b1-3)GalNAc
Summary of the method: as §1

[6] = target: Neu5Ac(a2-3)[Neu5Ac(a2-6)]GalNAc
Summary of the method: as §1

Neu5Ac(a2-6)Gal = target: Neu5Ac(a2-6)Gal
Summary of the method: as §1

[7] = target: Neu5Ac(a2-6)Gal(b1-3)GlcNAc(b1-3)[Gal(b1-4)GlcNAc(b1-6)]Gal(b1-4)Glc
Summary of the method: as §1

Neu5Ac(a2-6)Gal(b1-4)Glc = target: Neu5Ac(a2-6)Gal(b1-4)Glc
Summary of the method: as §1

[8] = target: Neu5Ac(a2-6)Gal(b1-4)GlcNAc
Summary of the method: as §1

[9] = target: Neu5Ac(a2-6)Gal(b1-4)GlcNAc(b1-2)Man
Summary of the method: as §1

[10] = target: Neu5Ac(a2-6)Gal(b1-4)GlcNAc(b1-2)Man(a1-3)Man(b1-4)GlcNAc(b1-4)GlcNAc
Summary of the method: as §1

[11] = target: Neu5Ac(a2-6)Gal(b1-4)GlcNAc(b1-2)Man(a1-3)[Gal(b1-4)GlcNAc(b1-2)Man(a1-6)]Man(b1-4)GlcNAc(b1-4)GlcNAc
Summary of the method: as §1

[12] = target: Neu5Ac(a2-6)Gal(b1-4)GlcNAc(b1-2)Man(a1-3)[GlcNAc(b1-2)Man(a1-6)]Man(b1-4)GlcNAc(b1-4)GlcNAc
Summary of the method: as §1

[13] = target: Neu5Ac(a2-6)Gal(b1-4)GlcNAc(b1-2)Man(a1-3)[GlcNAc(b1-4)][Neu5Ac(a2-6)Gal(b1-4)GlcNAc(b1-2)Man(a1-6)]Man(b1-4)GlcNAc(b1-4)GlcNAc
Summary of the method: as §1

[14] = target: Neu5Ac(a2-6)Gal(b1-4)GlcNAc(b1-2)Man(a1-3)[Man(a1-6)]Man(b1-4)GlcNAc(b1-4)GlcNAc
Summary of the method: as §1

[15] = target: Neu5Ac(a2-6)Gal(b1-4)GlcNAc(b1-2)Man(a1-3)[Neu5Ac(a2-3)Gal(b1-4)GlcNAc(b1-2)Man(a1-6)]Man(b1-4)GlcNAc(b1-4)GlcNAc
Summary of the method: as §1

[16] = target: Neu5Ac(a2-6)Gal(b1-4)GlcNAc(b1-2)Man(a1-3)[Neu5Ac(a2-6)Gal(b1-4)GlcNAc(b1-2)Man(a1-6)]Man(b1-4)GlcNAc(b1-4)GlcNAc
Summary of the method: as §1

[17] = target: Neu5Ac(a2-6)Gal(b1-4)GlcNAc(b1-2)Man(a1-3)[Neu5Ac(a2-6)Gal(b1-4)GlcNAc(b1-2)Man(a1-6)]Man(b1-4)GlcNAc(b1-4)[Fuc(a1-6)]GlcNAc
Summary of the method: as §1

[18] = target: Neu5Ac(a2-6)Gal(b1-4)GlcNAc(b1-2)Man(a1-6)Man(b1-4)GlcNAc(b1-4)GlcNAc
Summary of the method: as §1

[19] = target: Neu5Ac(a2-6)Gal(b1-4)GlcNAc(b1-2)Man(a1-6)[Gal(b1-4)GlcNAc(b1-2)Man(a1-3)]Man(b1-4)GlcNAc(b1-4)GlcNAc
Summary of the method: as §1

[20] = target: Neu5Ac(a2-6)Gal(b1-4)GlcNAc(b1-2)Man(a1-6)[GlcNAc(b1-2)Man(a1-3)]Man(b1-4)GlcNAc(b1-4)GlcNAc
Summary of the method: as §1

[21] = target: Neu5Ac(a2-6)Gal(b1-4)GlcNAc(b1-2)Man(a1-6)[Man(a1-3)]Man(b1-4)GlcNAc(b1-4)GlcNAc
Summary of the method: as §1

[22] = target: Neu5Ac(a2-6)Gal(b1-4)GlcNAc(b1-2)[Neu5Ac(a2-6)Gal(b1-4)GlcNAc(b1-4)]Man(a1-3)[GlcNAc(b1-4)][Neu5Ac(a2-6)Gal(b1-4)GlcNAc(b1-2)[Neu5Ac(a2-6)Gal(b1-4)GlcNAc(b1-6)]Man(a1-6)]Man(b1-4)GlcNAc(b1-4)GlcNAc
Summary of the method: as §1

[23] = target: Neu5Ac(a2-6)Gal(b1-4)GlcNAc(b1-2)[Neu5Ac(a2-6)Gal(b1-4)GlcNAc(b1-4)]Man(a1-3)[GlcNAc(b1-4)][Neu5Ac(a2-6)Gal(b1-4)GlcNAc(b1-4)Man(a1-6)]Man(b1-4)GlcNAc(b1-4)GlcNAc
Summary of the method: as §1

[24] = target: Neu5Ac(a2-6)Gal(b1-4)GlcNAc(b1-2)[Neu5Ac(a2-6)Gal(b1-4)GlcNAc(b1-6)]Man(a1-6)[Neu5Ac(a2-6)Gal(b1-4)GlcNAc(b1-2)Man(a1-3)][GlcNAc(b1-4)]Man(b1-4)GlcNAc(b1-4)GlcNAc
Summary of the method: as §1

[25] = target: Neu5Ac(a2-6)Gal(b1-4)GlcNAc(b1-3)Gal(b1-3)GlcNAc
Summary of the method: as §1

[26] = target: Neu5Ac(a2-6)Gal(b1-4)GlcNAc(b1-3)Gal(b1-4)GlcNAc
Summary of the method: as §1

[27] = target: Neu5Ac(a2-6)Gal(b1-4)GlcNAc(b1-3)Gal(b1-4)GlcNAc(b1-2)Man(a1-3)[Neu5Ac(a2-6)Gal(b1-4)GlcNAc(b1-3)Gal(b1-4)GlcNAc(b1-2)Man(a1-6)]GalNAc
Summary of the method: as §1

[28] = target: Neu5Ac(a2-6)Gal(b1-4)GlcNAc(b1-3)Gal(b1-4)GlcNAc(b1-3)Gal(b1-4)GlcNAc
Summary of the method: as §1

[29] = target: Neu5Ac(a2-6)Gal(b1-4)GlcNAc(b1-3)Gal(b1-4)GlcNAc(b1-3)Gal(b1-4)GlcNAc(b1-2)Man(a1-3)[Neu5Ac(a2-6)Gal(b1-4)GlcNAc(b1-3)Gal(b1-4)GlcNAc(b1-3)Gal(b1-4)GlcNAc(b1-2)Man(a1-6)]GalNAc
Summary of the method: as §1

[30] = target: Neu5Ac(a2-6)Gal(b1-4)GlcNAc(b1-3)Gal(b1-4)GlcNAc(b1-3)GalNAc
Summary of the method: as §1

[31] = target: Neu5Ac(a2-6)Gal(b1-4)GlcNAc(b1-3)Gal(b1-4)GlcNAc(b1-3)[Neu5Ac(a2-6)Gal(b1-4)GlcNAc(b1-3)Gal(b1-4)GlcNAc(b1-6)]GalNAc
Summary of the method: as §1

[32] = target: Neu5Ac(a2-6)Gal(b1-4)GlcNAc(b1-3)Gal(b1-4)GlcNAc(b1-6)[Gal(b1-3)]GalNAc
Summary of the method: as §1

[33] = target: Neu5Ac(a2-6)Gal(b1-4)GlcNAc(b1-3)Gal(b1-4)[Fuc(a1-3)]GlcNAc(b1-3)Gal(b1-4)[Fuc(a1-3)]GlcNAc
Summary of the method: as §1

[34] = target: Neu5Ac(a2-6)Gal(b1-4)GlcNAc(b1-3)GalNAc
Summary of the method: as §1

[35] = target: Neu5Ac(a2-6)Gal(b1-4)GlcNAc(b1-3)[Neu5Ac(a2-6)Gal(b1-4)GlcNAc(b1-6)]GalNAc
Summary of the method: as §1

[36] = target: Neu5Ac(a2-6)Gal(b1-4)GlcNAc(b1-6)GalNAc
Summary of the method: as §1

[37] = target: Neu5Ac(a2-6)Gal(b1-4)GlcNAc(b1-6)[Gal(b1-3)GlcNAc(b1-3)]Gal(b1-4)Glc
Summary of the method: as §1

[38] = target: Neu5Ac(a2-6)Gal(b1-4)GlcNAc(b1-6)[Gal(b1-3)]GalNAc
Summary of the method: as §1

[39] = target: Neu5Ac(a2-6)Gal(b1-4)GlcNAc6S
Summary of the method: as §1

Neu5Ac(a2-6)GalNAc = target: Neu5Ac(a2-6)GalNAc
Summary of the method: as §1

[40] = target: Neu5Ac(a2-6)GalNAc(b1-4)GlcNAc
Summary of the method: as §1

[41] = target: Neu5Ac(a2-6)GalNAc(b1-4)GlcNAc6S
Summary of the method: as §1

B1: MpL2 (Macrolepiota procera) (protein)
chain: MSTQVSSGQTYKITNVKAGTVIDLSGEDNKSIIGYPYHSGKNQQWTFNWTGKAWTLRSASSGSYLGIEGTPADGTRLVAVNDPFEWHIWRDEANENAFRIFVPFTNYNLRLSGYGDTTPGTPVQLWWTWEGLHQTWTIDRP
[1]
  glycan array binding signal (z-score): -0.281
Neu5Ac(a2-3)GalNAc
  glycan array binding signal (z-score): -0.301
[2]
  glycan array binding signal (z-score): -0.268
[3]
  glycan array binding signal (z-score): -0.253
[4]
  glycan array binding signal (z-score): -0.284
[5]
  glycan array binding signal (z-score): -0.134
[6]
  glycan array binding signal (z-score): -0.268
Neu5Ac(a2-6)Gal
  glycan array binding signal (z-score): -0.254
[7]
  glycan array binding signal (z-score): -0.203
Neu5Ac(a2-6)Gal(b1-4)Glc
  glycan array binding signal (z-score): -0.254
[8]
  glycan array binding signal (z-score): -0.26
[9]
  glycan array binding signal (z-score): -0.264
[10]
  glycan array binding signal (z-score): -0.258
[11]
  glycan array binding signal (z-score): -0.238
[12]
  glycan array binding signal (z-score): -0.268
[13]
  glycan array binding signal (z-score): -0.266
[14]
  glycan array binding signal (z-score): -0.247
[15]
  glycan array binding signal (z-score): -0.261
[16]
  glycan array binding signal (z-score): -0.225
[17]
  glycan array binding signal (z-score): -0.223
[18]
  glycan array binding signal (z-score): -0.252
[19]
  glycan array binding signal (z-score): -0.178
[20]
  glycan array binding signal (z-score): -0.281
[21]
  glycan array binding signal (z-score): -0.273
[22]
  glycan array binding signal (z-score): -0.294
[23]
  glycan array binding signal (z-score): -0.276
[24]
  glycan array binding signal (z-score): -0.265
[25]
  glycan array binding signal (z-score): -0.137
[26]
  glycan array binding signal (z-score): -0.269
[27]
  glycan array binding signal (z-score): -0.172
[28]
  glycan array binding signal (z-score): -0.253
[29]
  glycan array binding signal (z-score): -0.063
[30]
  glycan array binding signal (z-score): -0.261
[31]
  glycan array binding signal (z-score): 0.019
[32]
  glycan array binding signal (z-score): -0.233
[33]
  glycan array binding signal (z-score): -0.251
[34]
  glycan array binding signal (z-score): -0.278
[35]
  glycan array binding signal (z-score): -0.255
[36]
  glycan array binding signal (z-score): -0.236
[37]
  glycan array binding signal (z-score): -0.167
[38]
  glycan array binding signal (z-score): -0.26
[39]
  glycan array binding signal (z-score): -0.289
Neu5Ac(a2-6)GalNAc
  glycan array binding signal (z-score): -0.276
[40]
  glycan array binding signal (z-score): -0.301
[41]
  glycan array binding signal (z-score): -0.265
